Measured values: patent US7915263B2, “Aminopyridine derivatives having aurora A selective inhibitory action” (Banyu Pharmaceutical Co., Ltd., priority 2006, dated 2011)
Certain results were filed several times, with different values. The list is limited to them. There may be further records. Results that share an entry seem to repeat one measurement; one of them may be the mean.

Test system: Human cervical cancer cells (HeLa S3)
Assay: Effect by combined use of drugs in cells (docetaxel), WST-8 method
Format: cell-based
Details: docetaxel 0.3 nM alone, HeLa S3, three days
Method: Fetal calf serum (FCS) was purchased from Moregate Biotech, DMEM medium from Invitrogen Corp., docetaxel (tradename: Taxere) from Sigma-Aldrich, Inc., and WST-8 from Kishida Chemical Co., Ltd.
Human cervical cancer cells (HeLa S3) were obtained from the American Type Culture Collection (ATCC).
Cells were suspended in a DMEM medium containing 10% FCS, and the cell suspension was dispensed to two 96-well plastic plates at a rate of 750 cells/100 microliters per well. The plates were incubated overnight in 5% CO2-95% air at 37° C. A drug was subjected to graded dilution in dimethylsulfoxide and further diluted with DMSO or with a DMEM medium containing 10% FCS and also containing 0.6 nM docetaxel. […] Cell growth after incubation was measured by the WST-8 method (H. Tominaga, et al., Anal. Commun., 36, 47-50 (1999)). Here, the WST-8 method refers to a method in which 20 microliters of a WST-8 reagent solution is added to each well, incubation is conducted at 37° C. for 60 minutes, the plate is stirred, and the amount of formazan produced is measured by a colorimetric method to determine the inhibitory rate of the drug. The growth inhibitory effects of docetaxel and of the compound according to the invention were determined, with the value obtained in sole treatment of DMSO being defined as 0%.

Structure (SMILES): CC(=O)O[C@@]12CO[C@@H]1C[C@H](O)[C@@]1(C)C(=O)[C@H](O)C3=C(C)[C@@H](OC(=O)[C@H](O)[C@@H](NC(=O)OC(C)(C)C)c4ccccc4)C[C@@](O)([C@@H](OC(=O)c4ccccc4)[C@H]21)C3(C)C [docetaxel, reference compound]
- Cell growth inhibitory effect by sole administration of docetaxel (0.3 nM) (%): 53.4, 52.1, 49.6, 48.9% [lines of one column]
